Results taken from ChEMBL document CHEMBL4888484, “Replenishing the malaria drug discovery pipeline: Screening and hit evaluation of the MMV Hit Generation Library 1 (HGL1) against asexual blood stage Plasmodium falciparum ,using a nano luciferase reporter read-out” (2022).
The whole screen tested about 4,800 compounds, of which about 410 (8.5%) showed an effect of 50% or more. The list shows a part of the results.

system: Plasmodium falciparum; assay: Confirmatory screen in NF54 pLDH assay, in single point, at 2uM, 72h; format: functional, Erythrocyte; conditions: timepoint 72 hour

Compound	% Inhibition [%]
Cc1c(C(=O)c2ccc(Cl)c(Cl)c2)sc2nc3cc(F)c(F)cc3n12	-7
CCOc1ccc(C(N)=O)cc1Br	5
COc1cccc(OS(=O)(=O)Cc2ccon2)c1	9
Cn1cnn(CC(=O)N2CCc3sccc3C2)c1=O	12
Cc1csc(CNC(=O)C(=O)Nc2ccc3c(c2)C(=O)N(C)C3=O)n1	8
COc1ccc(OC)c([C@H](c2cc3c(cc2O)OCO3)N2CCCC2)c1	9
Cn1ccc2cccc(NC(=O)N3CC(C)(CO)C3)c21	9
Cc1ccc(CNC(=O)C[C@H]2CCS(=O)(=O)C2)cc1	-8
CCCCc1cc(NC(=O)c2cnc(C)cn2)on1	7
CCOc1cc(=O)c(C(=O)N2CCCCC2)nn1-c1ccc(OC)cc1	-13
COc1cc(N2CCn3c(nc4cc(Cl)ccc43)C2)ccc1NC(=O)c1ccccc1OC	-10
N#Cc1ccc(N2CCN3C(=O)NCC3C2)nc1N1CCN2C(=O)NCC2C1 (configuration not stated)	-19
O=C(CCn1ncc2c(Cl)cccc21)NCC1CCCC1	-19
O=S(=O)(Cc1ccno1)NCCc1ccccc1OC(F)F	11
CN(C)c1ccc(C2OCC3(CCC4(COC(c5ccc(N(C)C)cc5)OC4)O3)CO2)cc1 (configuration not stated)	-5
CC1CCC2(CC1)N=C(c1ccc(Cl)c(Cl)c1)C(=O)N2 (configuration not stated)	11
O=C(Nc1ccccc1Cl)N1CCC(N2CCc3sccc3C2)CC1	43
COC(=O)c1ccc(Nc2nc(C)c3nc(C)n(-c4ccc(C(=O)OC)cc4)c3n2)cc1	3
O=C(c1cccc(COc2ccc(Br)cc2)c1)N1CCN(Cc2ccccc2)CC1	-14
Cn1ncc2c(N3CC(=O)N(C4CC4)C3)ncnc21	-15
CC1CN(C(=O)Cn2nnc3ccccc3c2=O)CC1N(C)C (configuration not stated)	-6
COc1cccc2c1N(CC(=O)NCC(F)(F)F)CC[C@@H]2C	7
O=C(C1CCCC2CCCCC21)N1CCN(c2ncccn2)CC1 (configuration not stated)	3

Compound	% Inhibition [%]
Cc1ccc(CNCCC2=CCCCC2)cc1	7
C[C@H](NCc1cc(C(N)=O)cs1)c1cccc(Cl)c1	11
CCOc1ncc(Br)cc1C(=O)O	-19
Cn1c(CNC(=O)NCc2cc(Cl)c(Cl)n2C)cc(Cl)c1Cl	10
Cc1ccc(S(=O)(=O)Cc2nc(-c3ccc(C(=O)Nc4ccc(C)cc4Cl)cc3)oc2C)cc1	14
O=C(O)Cc1sc(-c2ccc(Cl)cc2)nc1-c1ccc(Oc2ccccc2)cc1	7
COc1nc(N2[C@@H]3CC[C@H]2C[C@@H](OC)C3)ncc1F	52
Cc1cncc(C=Cc2c(Cl)cccc2Cl)n1	-9
Cc1nsc2ncc(C(=O)N3CCC(C)CC3)c(N3CCC(C(=O)Nc4cc(F)ccc4F)CC3)c12	44
c1cc(CN2CCN(C3CCCCCC3)CC2)ccn1	-17
Cc1nsc(N2CCCC(C(C)NC(=O)OC(C)(C)C)C2)n1 (configuration not stated)	-1
CCCN1CCN(S(=O)(=O)c2cccc3nonc23)CC1	11
CCC(=O)NCCNC(=O)c1ccco1	8
O=C(NC1CCN(Cc2ccccc2)CC1)c1cncc(O)c1	-4
Cc1cccc(NS(=O)(=O)c2ccc3nncn3c2)c1	-13
Cc1nn(C)c(NC(=O)c2ccc(Cl)cc2)c1C1=CCCCC1	9
Cc1c(C(=O)N2CC[C@H](CC(C)(C)C)C2(C)C)nnn1-c1cnn(C)c1	-9
CCN1CCN(c2nc3ncn(CC(=O)NCCc4ccc(Cl)cc4)c(=O)c3s2)CC1	19
CC(C)c1ccc(-c2nc(CNc3cc4c(cc3Cl)NC(=O)CO4)cs2)cc1	1
CCC(CC)N1CC(C(=O)NC2COc3ccc(C)cc32)CC1=O (configuration not stated)	-21
CN(C(=O)c1n[nH]c2c1CCC2)[C@H]1CCCc2c1cnn2C	-4
CN1CCOC(C(=O)NC(c2c(F)cccc2F)C(F)(F)F)C1 (configuration not stated)	7
COc1ccc(NC(=O)[C@@H](c2cc(OC)c(OC)c(OC)c2)N(Cc2ccccc2)C(=O)Cn2nnc3ccccc32)cc1	-15

Compound	% Inhibition [%]
CCOC(=O)C(F)(F)[C@@H](NCC(=O)OC)C1CC1	-5
COc1ccc(-c2noc(Cn3c(=O)c4ccccc4n(CC(=O)Nc4cc(Cl)ccc4C)c3=O)n2)cc1	5
Cc1cc(C)n(-c2nc(Nc3ccc(Cl)cc3)nc(Nc3ccc(Cl)cc3)n2)n1	87
COc1ccc(C(=O)N2CC(C(=O)O)CCC2c2ccccc2)cc1 (configuration not stated)	13
CC(C(=O)Nc1cc(F)ccc1F)N1CCCC(c2nncn2C(C)C)C1 (configuration not stated)	2
O=C(O)CC1(NC(=O)c2cc(Oc3ccccc3)ccn2)CCC1	-1
Cn1c(=O)n(C)c2cc3c(cc21)NC(=O)CS3(=O)=O	5
Cc1nn(C)c(N)c1C(=O)N(C1CCC1)C1CCC1	-16
COc1ccc(CN2CC[C@@H]3C(=O)NCCCCCCN(Cc4ccncc4)[C@@H]3C2)cc1Cn1ccnc1	37
O=C(COC(F)F)N1CCc2ccncc21	-8
O=C(Nc1cccc2[nH]ncc12)c1ccco1	8
Cn1n[n+](CC(=O)Nc2ccccc2Cl)c2ccccc21	3
O=C(OCc1cncs1)c1ccccc1	10
O=C(NCC(=O)N1CCC[C@H]1c1ccc2c(c1)OCCCO2)c1ccc(Br)cc1	-7
CCn1ccc([C@H](C)NC(=O)c2cc(-c3ccc(OC)cc3)nc3c2c(C)nn3C)n1	12
COc1ncnc(OC)c1CNc1cnn(C)c1	6
Cc1cccc(CN2C[C@@H](c3noc(-c4ccccn4)n3)CC2=O)c1	6
C[C@H](Nc1ccc(N2CCOCC2)nc1)c1cccc(CO)c1	11
O=C1NC(=O)[C@@H]2CN(S(=O)(=O)c3cc(F)cc(Cl)c3)C[C@H]12	-15
O=C(NCCCc1ccccc1)c1ccc(CN2C(=O)CCn3nccc32)cc1	25
Cc1cc(C)cc(NC(=O)CCn2c(=O)cc(C(F)(F)F)c3cn(C(C)C)nc32)c1	-13
